Laboratory results reported in the supplement of paper PMC3334620.
Over roughly 33,000 sequences, “E-score (-0.5 to 0.5)” has its median near -0.053; the highest 2% begin near 0.37. Some of the results follow.

What follows are sequences tested against Hap1 (UniProt P0CE41) (assay: PBM E-score (8-mer binding enrichment) (E-score (-0.5 to 0.5)); higher = stronger / more preferred TF binding; most listed sequences are background and not binding sites). Conditions: protein concentration: 200 nM; construct: GST-DNA-binding domain.
Chain of UniProt P0CE41 (P0CE41 whole entry, the tested form may be a part): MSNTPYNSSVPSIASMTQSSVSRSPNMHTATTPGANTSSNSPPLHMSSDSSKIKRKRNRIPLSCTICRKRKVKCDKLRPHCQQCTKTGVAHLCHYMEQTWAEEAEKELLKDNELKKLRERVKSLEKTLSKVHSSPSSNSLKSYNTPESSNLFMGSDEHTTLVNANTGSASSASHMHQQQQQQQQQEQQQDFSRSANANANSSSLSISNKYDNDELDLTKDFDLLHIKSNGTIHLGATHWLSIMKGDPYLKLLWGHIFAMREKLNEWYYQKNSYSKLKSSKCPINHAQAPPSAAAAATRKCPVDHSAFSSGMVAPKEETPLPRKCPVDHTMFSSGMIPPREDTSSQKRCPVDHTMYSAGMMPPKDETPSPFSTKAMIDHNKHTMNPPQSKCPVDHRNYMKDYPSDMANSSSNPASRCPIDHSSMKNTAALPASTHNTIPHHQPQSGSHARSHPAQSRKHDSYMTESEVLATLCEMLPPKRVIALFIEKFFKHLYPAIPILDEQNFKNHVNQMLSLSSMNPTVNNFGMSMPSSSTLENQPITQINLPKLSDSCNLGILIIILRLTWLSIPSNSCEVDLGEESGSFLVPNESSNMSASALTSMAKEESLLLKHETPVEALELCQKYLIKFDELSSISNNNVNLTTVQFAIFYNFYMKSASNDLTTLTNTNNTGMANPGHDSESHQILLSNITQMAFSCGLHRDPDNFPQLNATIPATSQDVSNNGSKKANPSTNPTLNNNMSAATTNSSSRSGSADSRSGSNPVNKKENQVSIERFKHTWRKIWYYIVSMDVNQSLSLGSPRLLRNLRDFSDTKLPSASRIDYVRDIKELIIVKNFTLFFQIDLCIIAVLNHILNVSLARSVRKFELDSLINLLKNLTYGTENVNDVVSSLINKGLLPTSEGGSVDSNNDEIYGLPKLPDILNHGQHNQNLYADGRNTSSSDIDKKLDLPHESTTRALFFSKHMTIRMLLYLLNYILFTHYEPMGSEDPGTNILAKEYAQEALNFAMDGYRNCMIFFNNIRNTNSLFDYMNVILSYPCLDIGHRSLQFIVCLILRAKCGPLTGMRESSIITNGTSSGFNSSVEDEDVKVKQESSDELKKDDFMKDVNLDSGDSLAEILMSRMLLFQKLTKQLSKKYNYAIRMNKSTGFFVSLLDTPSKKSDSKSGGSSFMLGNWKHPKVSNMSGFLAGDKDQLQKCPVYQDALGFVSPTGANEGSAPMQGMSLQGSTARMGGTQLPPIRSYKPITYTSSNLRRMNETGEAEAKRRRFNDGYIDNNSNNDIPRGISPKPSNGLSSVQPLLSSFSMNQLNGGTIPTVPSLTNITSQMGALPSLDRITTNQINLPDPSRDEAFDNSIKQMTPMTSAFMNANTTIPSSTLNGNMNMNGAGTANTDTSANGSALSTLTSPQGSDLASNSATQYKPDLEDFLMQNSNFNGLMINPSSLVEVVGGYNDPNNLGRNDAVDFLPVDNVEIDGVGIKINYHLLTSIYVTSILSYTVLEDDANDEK
Outline: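 GST-tagged yeast TFs (full-length or DNA-binding domain) were made by PURExpress in vitro transcription/translation and applied at about 100-200 nM to universal all-10-mer Agilent arrays. The arrays were made double-stranded by primer extension, on fresh or once-stripped slides. Bound protein was detected with fluorescent anti-GST, and scans were normalised with masliner. Each ungapped eight-base word, pooled with its reverse complement, received an E-score (modified Wilcoxon-Mann-Whitney statistic) from the Universal PBM Analysis Suite.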

| Sequence | PBM E-score |
| --- | --- |
| CCTGCCAG | -0.22 |
| GTTCCGGA | 0.383 |
| AAAACGAC | -0.275 |
| ATGCAGCG | 0.039 |
| AGAATAGG | -0.0338 |
| TATTGTGA | -0.176 |
| AGCTTCGC | -0.156 |
| CGTCCTAG | -0.145 |
| AAAGACTA | -0.0408 |
| ATCTAATA | -0.113 |
| CAGCTATC | 0.0454 |
| CCCCATCA | -0.0633 |
| ACTAGACA | -0.0952 |
| CGTAGATC | 0.132 |
| ATCCCCAT | 0.132 |
| ATGTATGC | 0.0573 |
| CCGTACGC | 0.208 |
| CAAGGGAG | -0.0781 |
| AAGCCGGT | 0.332 |
| GCGGGAGC | -0.0693 |
| AACACTAT | 0.0204 |
| AGTGTCAC | -0.07 |
| AGAGTAAG | -0.121 |
| CCGTGCAA | 0.0301 |
| GGATGACC | 0.0942 |

| Sequence | PBM E-score |
| --- | --- |
| AGCAGCAC | -0.294 |
| TACAACTA | 0.00211 |
| ATGAAACA | -0.158 |
| AGGGGTCG | -0.249 |
| CTGCTGAA | -0.233 |
| CTGTCGTC | -0.117 |
| GACCAGCC | 0.171 |
| CAGCGTTC | -0.0658 |
| AATGTATA | 0.104 |
| GCATGGAA | 0.117 |
| ACGTGACA | -0.248 |
| ACTGGACA | -0.00994 |
| GACCGAGC | 0.375 |
| ACTACTCT | -0.139 |
| ACACCGAA | 0.282 |
| AGCGTCTA | -0.221 |
| GTCCGTCA | 0.246 |
| AGAAACCT | -0.00042 |
| CAGTCAGC | -0.156 |
| CTTCAAAA | -0.22 |
| AAAATGGA | 0.0497 |
| ACTCAATA | -0.0871 |
| GAATCGAA | -0.142 |
| CATGTACG | 0.093 |
| GCTTTATA | 0.0999 |

| Sequence | PBM E-score |
| --- | --- |
| GCAATAAC | 0.16 |
| GACCGACA | 0.359 |
| ATAGTATA | 0.0133 |
| AATAGGAC | -0.0969 |
| AATCGTAC | 0.0382 |
| ATTGCACG | -0.0316 |
| CTCCCTGC | -0.254 |
| ACACCTCG | 0.0907 |
| GAGGACGA | -0.0666 |
| TGATGAAA | -0.166 |
| GCAGGAAA | -0.114 |
| CCGGTAGC | 0.341 |
| CTCAGTTA | 0.0135 |
| CGAAGAAC | -0.0615 |
| AGTCTCTA | -0.332 |
| AATTAGTA | -0.0499 |
| GTGCGAGA | -0.179 |
| CGGTCGAG | 0.204 |
| CTCTCTCC | -0.0741 |
| CCCTATGA | -0.236 |
| CCATTGCG | 0.00154 |
| CTCATTAA | -0.0946 |
| TCATTGGA | -0.0948 |
| AAGGCACT | -0.193 |
| TGAGACAA | -0.0521 |

| Sequence | PBM E-score |
| --- | --- |
| ATGCGGTG | -0.162 |
| CCTTGAAA | -0.242 |
| GAACCATA | -0.0291 |
| ATAAGCAA | -0.108 |
| TGAGTACA | -0.0351 |
| GAAAGCCC | 0.188 |
| GCTCATAC | -0.0326 |
| ATGAAGAA | -0.136 |
| AGTCTATG | -0.304 |
| ATCAAGCA | -0.154 |
| TATGACGA | -0.0552 |
| CTGCGGTC | 0.148 |
| CCAGTATA | 0.055 |
| CCTTAAAA | -0.236 |
| ATCCATAG | 0.0507 |
| GGCTGGTA | -0.0605 |
| CCATCGGG | 0.25 |
| AGGTGCAG | -0.115 |
| AGTTGTGC | -0.166 |
| CCGATTCC | 0.405 |
| ATACTGGC | -0.224 |
| AGAGCCCA | -0.13 |
| GAATTCTC | 0.0388 |
| GATCCACC | -0.0286 |
| AACGTGGT | -0.116 |

| Sequence | PBM E-score |
| --- | --- |
| CAGTAGAG | -0.409 |
| CTGGCAAG | -0.207 |
| AGCTTATG | -0.244 |
| ATTATCTC | 0.231 |
| CGGTTCGA | 0.212 |
| AGAGCCGG | 0.263 |
| TAAGGAAA | -0.0149 |
| ATTGTTAC | -0.0281 |
| GAGTCGGA | 0.315 |
| GGTGCAAC | 0.198 |
| AGGACGCG | -0.072 |
| CACGACCG | 0.104 |
| AGCTCGCG | 0.0191 |
| ACGCCGAG | 0.352 |
| AAAAGACG | -0.167 |
| ACAAGTTA | 0.0246 |
| ACGTCTGC | -0.197 |
| GCCAGAGC | -0.2 |
| AGCCCAAA | 0.0481 |
| GGCGCAAA | 0.115 |
| CCCGCCAA | 0.107 |
| CGGGCGGC | 0.353 |
| ACAGCAGT | -0.0935 |
| ATGTTTCC | 0.19 |
| AAACTCAA | -0.125 |

| Sequence | PBM E-score |
| --- | --- |
| CGAAGCGA | 0.0956 |
| CGTGGGTC | -0.0907 |
| AGAGGGAC | -0.245 |
| AAGTGACT | -0.244 |
| CCTGGTGA | -0.171 |
| CAATCTCC | 0.264 |
| AACCCGAC | 0.32 |
| ATTCGGGC | 0.308 |
| CTACTCAC | -0.179 |
| ACTCCACA | -0.183 |
| AACGGTTG | -0.155 |
| AGACGGAA | 0.164 |
| ACGAATTA | -0.0927 |
| TCCCTAAA | 0.0112 |
| GAGTATAA | 0.0661 |
| AAAGTGAA | -0.0435 |
| GCGCGGAC | 0.267 |
| GTAATTTA | 0.0329 |
| CCCTGGTC | -0.177 |
| CCCAATGC | -0.125 |
| ACCTGAAT | -0.104 |
| ACCAAAGG | -0.282 |
| CGTTTTAA | -0.0609 |
| CTAGATTC | -0.0392 |
| CTAACTCA | -0.177 |

| Sequence | PBM E-score |
| --- | --- |
| ATCGAACA | 0.0509 |
| CGGATGGC | 0.179 |
| ACATTTTA | -0.213 |
| GCGTTCGA | -0.0723 |
| ACAGGAAC | -0.241 |
| CGGGCTTC | 0.307 |
| GGCGACGA | -0.133 |
| TTCATAAA | -0.184 |
| AAATGCGA | 0.124 |
| ACGTGGCA | -0.19 |
| CCGCCTCG | 0.114 |
| ACCCACGG | 0.0424 |
| AGGTTGTA | -0.112 |
| CAATTGTC | -0.108 |
| ACACTACG | 0.00345 |
| GACTTATA | 0.0475 |
| GCATTGTA | -0.0934 |
| ATCTCGGA | 0.385 |
| AGTGTCGA | -0.0327 |
| GGAAGAAC | 0.196 |
| AATGTCGA | -0.22 |
| CGACGACA | -0.214 |
